Experimental data taken from patent US20250144178A1, “PHARMACEUTICAL COMPOSITION FOR CANCER TREATMENT COMPRISING FUSION PROTEIN INCLUDING IL-12 AND ANTI-FAP ANTIBODY AND ANTICANCER AGENT” (KANAPH THERAPEUTICS INC., priority 2022, published 2025).
Each block holds one molecule with its values, some of them ahead of it.

Molecular target: T1, recombinant human FAP (Homo sapiens, UniProt Q12884)
T1 sequence (Q12884 1-760): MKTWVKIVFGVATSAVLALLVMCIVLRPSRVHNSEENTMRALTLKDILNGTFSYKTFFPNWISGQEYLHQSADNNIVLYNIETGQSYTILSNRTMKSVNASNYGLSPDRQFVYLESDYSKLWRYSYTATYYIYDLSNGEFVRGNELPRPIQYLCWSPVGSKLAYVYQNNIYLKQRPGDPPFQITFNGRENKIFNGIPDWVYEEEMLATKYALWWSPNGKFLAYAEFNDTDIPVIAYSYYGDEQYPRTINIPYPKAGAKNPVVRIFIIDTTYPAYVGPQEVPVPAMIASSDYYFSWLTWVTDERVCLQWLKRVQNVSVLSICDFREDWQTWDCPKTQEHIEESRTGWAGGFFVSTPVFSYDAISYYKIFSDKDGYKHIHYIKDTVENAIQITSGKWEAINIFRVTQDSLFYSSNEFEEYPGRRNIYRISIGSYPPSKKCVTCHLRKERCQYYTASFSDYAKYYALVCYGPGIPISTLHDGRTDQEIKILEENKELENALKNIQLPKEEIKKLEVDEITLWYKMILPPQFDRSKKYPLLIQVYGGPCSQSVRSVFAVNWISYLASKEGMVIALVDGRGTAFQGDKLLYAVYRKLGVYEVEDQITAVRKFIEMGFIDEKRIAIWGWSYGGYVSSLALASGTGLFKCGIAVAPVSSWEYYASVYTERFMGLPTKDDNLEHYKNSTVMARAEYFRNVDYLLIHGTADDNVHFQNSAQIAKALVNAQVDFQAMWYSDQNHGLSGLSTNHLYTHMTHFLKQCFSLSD
Test: Surface plasmon resonance binding to recombinant human FAP
Details: SPR, 1:1 binding model, protein captured by anti-human IgG (Fc), analyte human FAP
Experimental: Specifically, the surface of the CM5 chip was activated with a 1:1 mixture of […] NHS (N-hydroxysuccinimide) and […] EDC (1-Ethyl-3-(3-dimethylaminopropyl) carbodiimide), and 25 μg/ml of anti-human IgG (Fc) antibody was immobilized for 400 seconds at a rate of 10 μl/min. The remaining active ester groups were blocked with 1 M ethanolamine. T1.01, T1.02 and T1.03 were diluted to 2 μg/ml and reacted on the CM5 chip immobilized with the anti-human IgG (Fc) antibody. The recombinant human FAP was diluted to 200 nM in 1×HBS-EP+buffer solution and diluted by serial dilution. The diluted recombinant human FAP was reacted at a rate of 30 μl/min. The association and dissociation times were 180 seconds and 400 seconds, respectively. After the dissociation, stabilization was performed for 60 seconds, and then a regeneration was performed for 30 seconds with a 10 mM glycine pH 1.5 solution at a rate of 30 μl/min.
Bindings of T1.04, T1.05, T1.06, T1.07, T1.08, T1.09, T1.10 and T1.11 to recombinant human […] were identified by surface plasmon resonance (SPR). The surface of the CM5 chip was activated with a 1:1 mixture of […] (N-hydroxysuccinimide) and […] (1-Ethyl-3-(3-dimethylaminopropyl) carbodiimide), and 25 μg/ml of anti-human IgG (Fc) antibody was immobilized for 400 seconds at a rate of 10 μl/min. The remaining active ester groups were blocked with 1 M ethanolamine.
Specifically, human proteins T1.04, T1.05, T1.06, T1.07, T1.08, T1.09, T1.10 and T1.11 were diluted to 1 μg/ml, 1 μg/ml, 1 μg/ml, 1 μg/ml, 0.5 μg/ml, 0.5 μg/ml, 0.5 μg/ml, and 1 μg/ml, respectively, and reacted on a CM5 chip immobilized with an anti-human IgG (Fc) antibody. The recombinant human FAP was diluted to 25 nM or 50 nM in 1×HBS-EP+buffer solution and diluted by serial dilution. The diluted recombinant human FAP was reacted at a rate of 30 μl/min. The association and dissociation times were 180 seconds and 400 seconds, respectively. After the dissociation, stabilization was performed for 60 seconds, and then a regeneration was performed for 30 seconds with a 10 mM glycine pH 1.5 solution at a rate of 30 μl/min.

- ka: 583000 M⁻¹ s⁻¹
- kd: 1.5e-05 s⁻¹
B1: T1.04: K&H: anti-hu FAP (DVD-Ig)/hu IL-12, hu IgG1 DANG (2 + 1) (seq3, seq6, seq7) (antibody)
heavy: QVQLVQSGAEVKKPGASVKVSCKTSRYTFTEYTIHWVRQAPGQRLEWIGGINPNNGIPNYNQKFKGRVTITVDTSASTAYMELSSLRSEDTAVYYCARRRIAYGYDEGHAMDYWGQGTLVTVSSGGGGSGGGGSGGGGSQVQLVQSGAEVKKPGASVKVSCKTSRYTFTEYTIHWVRQAPGQRLEWIGGINPNNGIPNYNQKFKGRVTITVDTSASTAYMELSSLRSEDTAVYYCARRRIAYGYDEGHAMDYWGQGTLVTVSSASTKGPSVFPLAPSSKSTSGGTAALGCLVKDYFPEPVTVSWNSGALTSGVHTFPAVLQSSGLYSLSSVVTVPSSSLGTQTYICNVNHKPSNTKVDKKVEPKSCDKTHTCPPCPAPELLGGPSVFLFPPKPKDTLMISRTPEVTCVVVAVSHEDPEVKFNWYVDGVEVHNAKTKPREEQYGSTYRVVSVLTVLHQDWLNGKEYKCKVSNKALPAPIEKTISKAKGQPREPQVYTLPPSRDELTKNQVSLWCLVKGFYPSDIAVEWESNGQPENNYKTTPPVLDSDGSFFLYSKLTVDKSRWQQGNVFSCSVMHEALHNHYTQKSLSLSPGK
light: DIVMTQSPDSLAVSLGERATINCKSSQSLLYSRNQKNYLAWYQQKPGQPPKLLIFWASTRESGVPDRFSGSGFGTDFTLTISSLQAEDVAVYYCQQYFSYPLTFGQGTKVEIKGGGGSGGGGSGGGGSDIVMTQSPDSLAVSLGERATINCKSSQSLLYSRNQKNYLAWYQQKPGQPPKLLIFWASTRESGVPDRFSGSGFGTDFTLTISSLQAEDVAVYYCQQYFSYPLTFGQGTKVEIKRTVAAPSVFIFPPSDEQLKSGTASVVCLLNNFYPREAKVQWKVDNALQSGNSQESVTEQDSKDSTYSLSSTLTLSKADYEKHKVYACEVTHQGLSSPVTKSFNRGEC
chain: IWELKKDVYVVELDWYPDAPGEMVVLTCDTPEEDGITWTLDQSSEVLGSGKTLTIQVKEFGDAGQYTCHKGGEVLSHSLLLLHKKEDGIWSTDILKDQKEPKNKTFLRCEAKNYSGRFTCWWLTTISTDLTFSVKSSRGSSDPQGVTCGAATLSAERVRGDNKEYEYSVECQEDSACPAAEESLPIEVMVDAVHKLKYENYTSSFFIRDIIKPDPPKNLQLKPLKNSRQVEVSWEYPDTWSTPHSYFSLTFCVQVQGKSKREKKDRVFTDKTSATVICRKNASISVRAQDRYYSSSWSEWASVPCSGGGGSGGGGSGGGGSRNLPVATPDPGMFPCLHHSQNLLRAVSNMLQKARQTLEFYPCTSEEIDHEDITKDKTSTVEACLPLELTKNESCLNSRETSFITNGSCLASRKTSFMMALCLSSIYEDLKMYQVEFKTMNAKLLMDPKRQIFLDQNMLAVIDELMQALNFNSETVPQKSSLEEPDFYKTKIKLCILLHAFRIRAVTIDRVMSYLNASGGGGSGGGGS[skipping human IgG1 Fc with changes]

- ka: 446000 M⁻¹ s⁻¹
- kd: 7.87e-05 s⁻¹
B2: T1.08: K&H: anti-hu FAP/hu IL-12, hu IgG1 DANG (2 + 1, LC scFv) (seq1, seq3, seq9) (antibody)
heavy: QVQLVQSGAEVKKPGASVKVSCKTSRYTFTEYTIHWVRQAPGQRLEWIGGINPNNGIPNYNQKFKGRVTITVDTSASTAYMELSSLRSEDTAVYYCARRRIAYGYDEGHAMDYWGQGTLVTVSSASTKGPSVFPLAPSSKSTSGGTAALGCLVKDYFPEPVTVSWNSGALTSGVHTFPAVLQSSGLYSLSSVVTVPSSSLGTQTYICNVNHKPSNTKVDKKVEPKSCDKTHTCPPCPAPELLGGPSVFLFPPKPKDTLMISRTPEVTCVVVAVSHEDPEVKFNWYVDGVEVHNAKTKPREEQYGSTYRVVSVLTVLHQDWLNGKEYKCKVSNKALPAPIEKTISKAKGQPREPQVYTLPPSRDELTKNQVSLWCLVKGFYPSDIAVEWESNGQPENNYKTTPPVLDSDGSFFLYSKLTVDKSRWQQGNVFSCSVMHEALHNHYTQKSLSLSPGK
light: DIVMTQSPDSLAVSLGERATINCKSSQSLLYSRNQKNYLAWYQQKPGQPPKLLIFWASTRESGVPDRFSGSGFGTDFTLTISSLQAEDVAVYYCQQYFSYPLTFGQGTKVEIKRTVAAPSVFIFPPSDEQLKSGTASVVCLLNNFYPREAKVQWKVDNALQSGNSQESVTEQDSKDSTYSLSSTLTLSKADYEKHKVYACEVTHQGLSSPVTKSFNRGECGGGGSGGGGSGGGGSQVQLVQSGAEVKKPGASVKVSCKTSRYTFTEYTIHWVRQAPGQRLEWIGGINPNNGIPNYNQKFKGRVTITVDTSASTAYMELSSLRSEDTAVYYCARRRIAYGYDEGHAMDYWGQGTLVTVSSGGGGSGGGGSGGGGSGGGGSDIVMTQSPDSLAVSLGERATINCKSSQSLLYSRNQKNYLAWYQQKPGQPPKLLIFWASTRESGVPDRFSGSGFGTDFTLTISSLQAEDVAVYYCQQYFSYPLTFGQGTKVEIK
chain: IWELKKDVYVVELDWYPDAPGEMVVLTCDTPEEDGITWTLDQSSEVLGSGKTLTIQVKEFGDAGQYTCHKGGEVLSHSLLLLHKKEDGIWSTDILKDQKEPKNKTFLRCEAKNYSGRFTCWWLTTISTDLTFSVKSSRGSSDPQGVTCGAATLSAERVRGDNKEYEYSVECQEDSACPAAEESLPIEVMVDAVHKLKYENYTSSFFIRDIIKPDPPKNLQLKPLKNSRQVEVSWEYPDTWSTPHSYFSLTFCVQVQGKSKREKKDRVFTDKTSATVICRKNASISVRAQDRYYSSSWSEWASVPCSGGGGSGGGGSGGGGSRNLPVATPDPGMFPCLHHSQNLLRAVSNMLQKARQTLEFYPCTSEEIDHEDITKDKTSTVEACLPLELTKNESCLNSRETSFITNGSCLASRKTSFMMALCLSSIYEDLKMYQVEFKTMNAKLLMDPKRQIFLDQNMLAVIDELMQALNFNSETVPQKSSLEEPDFYKTKIKLCILLHAFRIRAVTIDRVMSYLNASGGGGSGGGGS[skipping human IgG1 Fc with changes]

- ka: 625000 M⁻¹ s⁻¹
- kd: 5.83e-05 s⁻¹
B3: T1.05: K&H: anti-hu FAP (DVD-Ig)/hu IL-12 mut2, hu IgG1 DANG (2 + 1) (seq5, seq6, seq7) (antibody)
heavy: B1 heavy
light: B1 light
chain: IWELKKDVYVVELDWYPDAPGEMVVLTCDTPEEDGITWTLDQSSEVLGSGKTLTIQVKEFGDAGQYTCHKGGEVLSHSLLLLHKKEDGIWSTDILKDQKEPKNKTFLRCEAKNYSGRFTCWWLTTISTDLTFSVKSSRGSSDPQGVTCGAATLSAERVRGDNKEYEYSVECQEDSACPAAEESLPIEVMVDAVHKLKYENYTSSFFIRDIIKPDPPKNLQLKPLKNSRQVEVSWEYPDTWSTPHSYFSLTFCVQVQGASAREAADRVFTDKTSATVICRKNASISVRAQDRYYSSSWSEWASVPCSGGGGSGGGGSGGGGSRNLPVATPDPGMFPCLHHSQNLLRAVSNMLQKARQTLEFYPCTSEEIDHEDITKDKTSTVEACLPLELTKNESCLNSRETSFITNGSCLASRKTSFMMALCLSSIYEDLKMYQVEFKTMNAKLLMDPKRQIFLDQNMLAVIDELMQALNFNSETVPQKSSLEEPDFYKTKIKLCILLHAFRIRAVTIDRVMSYLNASGGGGSGGGGS[skipping human IgG1 Fc with changes]
